# The whole screen tested about 310,000 compounds, of which about 14,000 (4.5%) showed an effect of 50% or more. The effect is printed as a negative number. The list shows a part of the results.
# Target: human ether-à-go-go-related gene (hERG) potassium channel (human, UniProt Q12809)
# Test: primary screen, population patch clamp on CHO cells stably expressing hERG
# 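Note: peak tail current of the secondary pulse compared with the same well before compound.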
# human ether-à-go-go-related gene (hERG) potassium channel, sequence (Q12809 whole entry, looked up): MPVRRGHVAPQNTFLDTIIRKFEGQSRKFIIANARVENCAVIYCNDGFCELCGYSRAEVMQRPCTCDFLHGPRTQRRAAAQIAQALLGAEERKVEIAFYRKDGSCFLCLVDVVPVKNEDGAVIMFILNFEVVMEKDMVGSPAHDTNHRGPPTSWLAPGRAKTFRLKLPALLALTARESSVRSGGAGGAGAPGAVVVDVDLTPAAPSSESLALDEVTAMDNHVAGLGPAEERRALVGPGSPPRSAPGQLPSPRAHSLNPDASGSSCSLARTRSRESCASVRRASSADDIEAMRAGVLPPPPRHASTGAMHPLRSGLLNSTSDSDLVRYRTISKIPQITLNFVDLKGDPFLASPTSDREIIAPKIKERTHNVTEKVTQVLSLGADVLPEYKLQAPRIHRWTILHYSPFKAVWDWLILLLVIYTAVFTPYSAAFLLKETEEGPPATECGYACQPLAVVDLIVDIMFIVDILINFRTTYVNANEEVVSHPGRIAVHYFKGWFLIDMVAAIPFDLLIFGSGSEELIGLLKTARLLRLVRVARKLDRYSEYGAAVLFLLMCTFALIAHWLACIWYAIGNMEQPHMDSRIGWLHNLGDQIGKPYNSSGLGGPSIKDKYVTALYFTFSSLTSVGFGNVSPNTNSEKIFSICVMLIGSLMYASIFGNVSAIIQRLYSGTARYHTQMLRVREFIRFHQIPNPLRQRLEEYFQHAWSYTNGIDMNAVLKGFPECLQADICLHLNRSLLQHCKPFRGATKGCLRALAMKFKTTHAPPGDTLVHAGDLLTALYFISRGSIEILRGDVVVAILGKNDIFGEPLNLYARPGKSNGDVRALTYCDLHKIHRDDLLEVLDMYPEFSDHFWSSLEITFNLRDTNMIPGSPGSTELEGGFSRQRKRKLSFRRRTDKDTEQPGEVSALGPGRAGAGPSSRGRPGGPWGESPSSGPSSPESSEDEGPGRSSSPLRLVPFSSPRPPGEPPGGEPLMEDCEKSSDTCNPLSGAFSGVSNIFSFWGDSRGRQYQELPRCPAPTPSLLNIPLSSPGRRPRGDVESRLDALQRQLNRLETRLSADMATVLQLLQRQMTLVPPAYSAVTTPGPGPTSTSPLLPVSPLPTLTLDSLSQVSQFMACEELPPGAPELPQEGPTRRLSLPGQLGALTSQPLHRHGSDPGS
row,Compound,"hERG current change (%, negative = inhibition) at 10uM [%]"
1,O=C(c1cccs1)N1CCN(S(=O)(=O)c2cccs2)CC1,-12.6
2,O=C1CN(S(=O)(=O)c2ccc(Cl)cc2)c2ccccc2N1,4.25
3,CC(Oc1ccccc1)C(=O)N1CCC2(CC1)Oc1ccc(F)cc1C(=O)C21CC(c2cccnc2)=NO1 (stereo not drawn),-20.5
4,C(=N\Nc1nncn1/N=C/c1ccco1)/c1ccco1,-8.45
5,O=C(CCc1nnc2ccc(N3CCC4(CC3)OCCO4)nn12)Nc1cc(F)ccc1F,-32.6
6,O=C(O)c1ccccc1C(=O)N1CCN(C(=O)c2ccccc2Cl)CC1,11.9
7,O=C(CSc1nnc(NC(=O)c2ccco2)s1)NC1CCCC1,18.6
8,COC(=O)Nc1ccc(S(=O)(=O)Nc2cc(C(F)(F)F)c[nH]c2=O)cc1,10.7
9,Cc1c(C(=O)O)sc2nc3n(c(=O)c12)CCC(C)CC3 (stereo not drawn),0.598
10,CCOC(=O)N1CCN(CC(=O)Nc2ccc([N+](=O)[O-])cc2C(=O)Nc2ccccc2F)CC1,-50.7
11,CCOC(=O)Cn1c(S(=O)(=O)Cc2ccc(F)cc2)nc(-c2ccccc2)c1-c1ccccc1,-7.15
12,Cc1ccc(C(=O)N2CCN(S(=O)(=O)N3CCCCCC3)CC2)cc1,-12.6
13,COC(=O)CC1=C(C(=O)OC)C(c2cc(OC)c(OC)cc2OC)C(C#N)=C(N)O1 (stereo not drawn),-13.6
14,OCCC1CN(Cc2cccc(O)c2)CCN1CCc1ccccc1 (stereo not drawn),-24.4
15,O=C(NNC(=O)c1ccc(NC(=O)c2ccccc2)cc1)c1ccc(F)cc1,20.4
16,Cc1nnc(SCC(=O)Nc2ccc3c(c2)OCCO3)n1N,12.4
17,COc1ccccc1OCc1ccc(C(=O)NCc2ccco2)o1,-25.3
18,CCN(c1ccccc1)C1(O)C(=O)c2ccccc2C1=O,19.6
19,N=C1C2=C3Sc4ccccc4N3CCCC2=NN1c1cccc(S(=O)(=O)O)c1,18.4
20,Cc1cccnc1NC(=O)CSc1nnc(CNC(=O)c2cccc([N+](=O)[O-])c2)n1C,-5.15
21,COc1ccccc1CNC(=O)C1(NC(=O)Nc2ccc(C)cc2)CCCCC1,30.7
22,COc1ccc(C(=O)N=c2nc3ccccn3s2)cc1,-1.15
23,COc1ccccc1/C=N/Nc1nc(C)cc(C)n1,8.07

row,Compound,"hERG current change (%, negative = inhibition) at 10uM [%]"
1,Cn1c(SCC(=O)NCC2CCCO2)nnc1-c1c[nH]c2ccccc12 (stereo not drawn),-3.55
2,O=C1C2CCCCC2C(=O)N1c1nccs1 (stereo not drawn),-15.2
3,C/C(=N\NC(=O)CSCc1cccc(Br)c1)c1ccc([N+](=O)[O-])cc1,2.93
4,CCn1c(SCC(=O)Nc2nnc(C)s2)nnc1C(C)NC(=O)c1ccccc1F (stereo not drawn),16.5
5,CC(C)(C)Oc1ncc(Br)c(OC(C)(C)C)n1,-8.79
6,Cn1c(-c2sc3ccccc3c2Cl)n[nH]c1=S,8.39
7,Cc1cccc(-c2c3c(=O)n(C)c(=O)n(C)c3cn2CC2CCCO2)c1 (stereo not drawn),4.52
8,CC(C)=CC(=O)Nc1ccc(Br)cc1,-4.33
9,COC(=O)c1ccc(NC(=O)c2ccc3c(c2)OCO3)cc1,-3.45
10,CCOC(=O)c1[nH]c2ccccc2c1NC(=O)C(CC)CC,9.58
11,Cc1ccc(-c2nn(-c3ccccc3)cc2C(=O)O)o1,53.1
12,Cc1ccc(S(=O)(=O)NNC(=O)Nc2ccc([N+](=O)[O-])cc2)c(C)c1,3.83
13,O=C(NC(C(=O)c1ccccc1)N1CCOCC1)c1ccccc1 (stereo not drawn),12.7
14,COc1ccc(OC)c(N2CC(O)(c3ccccc3)[N+]3=C2SCCC3)c1.[Br-] (stereo not drawn),-72.6
15,COc1cc(C2NC(=O)C(C#N)=C(S)N2c2ccccc2)ccc1OC(C)C (stereo not drawn),3.11
16,NCCCNc1nc(N)c([N+](=O)[O-])c(NC2CCCCC2)n1,4.4
17,O=C(CSCc1ccc(F)cc1)NC1CCCC1,-3.27
18,Cc1cccc(C)c1NC(=O)CN(C)C(=O)c1ccccc1Cc1ccccc1,-7.95
19,O=C(CCCC(=O)N1CCN(c2cccc(Cl)c2)CC1)c1ccccc1,-44.2
20,CC(C)C(=O)Nc1nnc(SCC(=O)NCc2ccc3c(c2)OCO3)s1,12.7
21,CCOC(=O)N1CCN(S(=O)(=O)c2ccc(OCC(=O)OC)cc2)CC1,5.84
22,O=C1CCC(C(=O)OCc2nnc(-c3ccc(Cl)cc3)o2)=NN1,2.93
23,CCC1CCCCN1C(=O)C1CC(c2cc(Cl)c(OC)cc2OC)=NO1 (stereo not drawn),-4.45

row,Compound,"hERG current change (%, negative = inhibition) at 10uM [%]"
1,Cn1c(=O)cc(SCC(=O)NCCC2=CCCCC2)c2cc(Cl)ccc21,5.01
2,COc1cc(Cl)c(C)cc1NC(=O)CSc1nc2ccccc2o1,18.3
3,c1ccc(-c2nn[nH]n2)nc1,9.49
4,Cc1ccc(NC(=O)CCCC2CCCCC2)c(O)c1,16.7
5,CN(C)CCCNC(=O)c1ccc2[nH]c3ccccc3c2c1,-20.4
6,COc1cc(C2C3=C(CC(C)(C)CC3=O)OC3=C2C(=O)CC(C)(C)C3)cc([N+](=O)[O-])c1O,-1.62
7,COc1ccc(OC)c2sc(N3CCN(C(=O)c4ccc5ncsc5c4)CC3)nc12,5.99
8,COc1ccc(Br)cc1C1SCCN1S(C)(=O)=O (stereo not drawn),1.52
9,O=C(Nn1cnc2ccccc2c1=O)c1ccccc1Cl,11.6
10,O=C(COC(=O)CNC(=O)c1ccccc1)NCCNC(=O)COC(=O)CNC(=O)c1ccccc1,-0.31
11,Cc1occc1C(=O)Nc1cccc2ccccc12,-11.4
12,COc1ccc(C(=O)OCC(=O)N(C)C2CCS(=O)(=O)C2)cc1S(=O)(=O)N(C)Cc1ccccc1 (stereo not drawn),-15.7
13,O=C(COC(=O)COc1ccccc1)NCCc1ccccc1,-5.58
14,CCCc1c(C(=O)N/N=C/C(C)=C/c2ccco2)nnn1-c1nonc1N,1.19
15,Cc1csc2ncnc(N3CCN(C(=S)Nc4ccc(C(F)(F)F)cc4)CC3)c12,-16.7
16,CN(C)c1nc(NCc2ccccc2)nc(N/N=C/c2ccc(Cl)cc2Cl)n1,26.5
17,CCc1ccc(NC(=O)N2CCN(c3ccccc3)CC2)cc1,4.06
18,Cc1noc(C)c1CSCC(=O)N(C)CC(=O)Nc1ccccc1C(F)(F)F,8.73
19,CCn1c(C)nc2cc(C(=O)NNS(=O)(=O)c3c(C)c(C)cc(C)c3C)ccc21,-13.2
20,CC(Oc1ccc([N+](=O)[O-])cc1)C(=O)NCC1CCCO1 (stereo not drawn),-7.02
21,COC(=O)CSc1nc(NC(C)=O)nc(C)c1Br,9.72
22,Cc1ccc(/C(=N\S(=O)(=O)c2ccc(Br)cc2)Nc2ccccc2C)cc1,3.64
23,COc1ccc(NC(=O)COC(=O)c2cccc(S(=O)(=O)N3CCCCC3)c2)c(OC)c1,2.39

row,Compound,"hERG current change (%, negative = inhibition) at 10uM [%]"
1,CC1(C)CC(NC(=O)COc2ccc3c4c(c(=O)oc3c2)CCCC4)CC(C)(C)N1,-6.73
2,CCN(C(=O)c1cnc(OC)cc1C(F)(F)F)c1ccc(Cl)cc1,-7.65
3,Cc1ccc(Cn2c(=O)c3c(nc4n3CCN4Cc3ccco3)n(C)c2=O)cc1,-17.9
4,COc1cccc(-n2nnc3c(=O)n(CC(=O)Nc4ccccc4C)cnc32)c1,-11.4
5,CC1=NOC(=O)/C1=C/c1ccc(O)c(Cl)c1,13.8
6,O=C(O)c1ccc(N=C2NC(=O)C(CO)(CO)S2)cc1,11.3
7,CC(C)CC(=O)c1c[nH]c(C(=O)N2CCN(Cc3ccccc3)CC2)c1,-33
8,CCCC(=O)N1CCc2cc(OC)c(OC)cc2C1COc1ccccc1OC (stereo not drawn),7.33
9,CN(CC1CCCN(CCc2ccc(F)cc2)C1)C(=O)CCC(F)(F)F (stereo not drawn),-63
10,CCOC(=O)c1ccc(Nc2nnc3nc(C)cc(C)n23)cc1,16.2
11,CC(Sc1nncn1C)C(=O)Nc1ccccc1-c1ccccc1 (stereo not drawn),8.27
12,Cn1c(SCC(=O)NC(c2ccccc2)c2ccccc2)nnc1-c1cccs1,-44.8
13,Cc1nc2c(C(=O)NCCc3ccccc3)c[nH]n2c(=O)c1Cl,4.11
14,O=C(NC(=S)Nn1cnnc1)c1ccccc1Br,7.91
15,CSc1ccc(CCNS(=O)(=O)c2csc(C(N)=O)c2)cc1,2.7
16,O=C(c1ccc(S(=O)(=O)c2ccccc2)cc1)N1CCCCCC1,-9.18
17,CCc1ccc(C(=O)N2CCN(c3ccc(F)cc3)CC2)s1,-28.9
18,CCOC(=O)c1c(-c2ccco2)csc1NC(=O)COC(=O)c1cnc(C)cn1,7.82
19,O=C(O)CC/C(=N\NC(=O)c1ccccc1Br)c1ccccc1,36
20,COc1ccccc1NC(=O)c1c(C)cc(=O)oc1C,14.7
21,CC(C)CC(NC(=O)CNC(=O)C1O[C@@H]2OC(C)(C)O[C@@H]2[C@H]2OC(C)(C)O[C@@H]12)C(=O)O (stereo partly drawn),-6.46
